“And” between values parts separate entries of the source, which are not always exact repeats. Identical values can stand only once.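 Step 1: Grow cells in 96-well plates. Step 2: Expose to compound for 48 hours at 5 concentrations. Step 3: Interpolate endpoints linearly; if unreached, use highest concentration. Abbreviation: GI50, concentration required for 50% inhibition of growth. TGI marks complete inhibition of growth.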 Numbered stars: 1 amine (or outer) side, 2 acyl side, 3 side chain; on linkers, the order of the positions; unused ones are H or OH. Bridge positions count the residues as written; N and C are the ends. Square brackets hold non-standard residues; d marks the D form. Peptide text beside a SMILES is read from it. * marks the point of attachment. ξ: configuration not given here. Phe(3,5-F2) = N[C@@H](Cc1cc(F)cc(F)c1)C(=O)O; ξThr(3S) = C[C@H](O[*:3])C(N[*:1])C(=O)[*:2]; Pro(4R-Me) = C[C@H]1CN[C@H](C(=O)O)C1; Pip = O=C(O)[C@@H]1CCCCN1; X1 = Cc1ccc(N*)c(F)c1; CO = O=C([*:1])[*:2]
Tested on: NCI-H322M lung
Test: DTP human tumour cell line panel, 48 h

| Compound | GI50 | TGI |
| --- | --- | --- |
| C#C[C@]1(O)CC[C@H]2[C@@H]3CC=C4c5sc(Nc6cc(C)cc(C)c6)nc5CC[C@]4(C)[C@H]3CC[C@@]21C | 7070 nM | > 100000 nM |
| Cc1[nH]nc2ncc(C#Cc3cncc(C(=O)Nc4ccc(CN5CCN(C)CC5)c(C(F)(F)F)c4)c3)cc12 | 214 nM | – |
| Cc1ccc(NC(=O)N[C@@H](Cc2cc(F)cc(F)c2)C(=O)NC2C(=O)N3CCC[C@H]3C(=O)N3CCCC[C@H]3C(=O)N[C@@H](C)C(=O)N3C[C@H](C)C[C@H]3C(=O)O[C@H]2C)c(F)c1 (stereo partly drawn) ({X1-CO}-[Phe(3,5-F2)][ξThr(3S)]P[Pip]A[Pro(4R-Me)]; ester 2-C) | 759 nM and 859 nM | 50000 nM and > 100000 nM |
| Cc1ccc(-c2nnc(SCc3ccc(O)c4ncccc34)o2)cc1 | 1080 nM | > 100000 nM |

Reference: PubChem BioAssay (NCI)
